Experimental findings from patent publication US8648074B2, “Substituted octahydropyrrolo[1,2-a]pyrazine sulfonamides as calcium channel blockers” (AbbVie Inc., priority 2011, dated 2014) are described below.

Structures are written as SMILES.

In this test the target is human Cav2.2 (Homo sapiens, UniProt Q00975). Kind of test: In vitro assessment of calcium channel activity using FLIPR (Ca2+ influx in IMR32 cells). The note with it: IMR32 cells endogenously expressing human Cav2.2; Calcium 4 dye, 60 minute pre-incubation, 2 μM nifedipine, depolarized with 80 mM KCl; average of at least two runs unless marked *. It counts as cell-based.
By IC50 is commonly meant the concentration needed to halve the response being measured. As to `O=S(=O)(c1ccc(C(F)(F)F)cc1)N1CCN2C[C@@H](Oc3cnc(C4CC4)cn3)C[C@H]2C1` [Example 50, (7S,8aS)-7-[(5-cyclopropylpyrazin-2-yl)oxy]-2-{[4-(trifluoromethyl)phenyl]-sulfonyl}octahydropyrrolo[1,2-a]pyrazine], the half-inhibitory concentration (IC50) came out at 1570 nM.

`O=S(=O)(c1cccc(C(F)(F)F)c1)N1CCN2C[C@@H](Oc3cnc(C4CC4)cn3)C[C@@H]2C1` [Example 18, (7S,8aR)-7-[(5-cyclopropylpyrazin-2-yl)oxy]-2-{[3-(trifluoromethyl)phenyl]-sulfonyl}octahydropyrrolo[1,2-a]pyrazine]: the half-inhibitory concentration (IC50) is 530 nM.

Turning to `O=C1[C@@H](C(O)c2cccc(F)c2)C[C@H]2CN(S(=O)(=O)c3cccc(C(F)(F)F)c3)CCN12` (stereo partly drawn) [Example 216, (7R,8aS)-7-[(3-fluorophenyl)(hydroxy)methyl]-2-{[3-(trifluoromethyl)-phenyl]sulfonyl}hexahydropyrrolo[1,2-a]pyrazin-6(2H)-one], the half-maximal inhibitory concentration (IC50) was determined as 1660 nM.

In the case of `Cc1cc(O[C@H]2C[C@H]3CN(S(=O)(=O)c4cccc(C(F)(F)F)c4)CCN3C2)ccc1F` [Example 79, (7S,8aS)-7-(4-fluoro-3-methylphenoxy)-2-{[3-(trifluoromethyl)phenyl]-sulfonyl}octahydropyrrolo[1,2-a]pyrazine], the IC50 was 1120 nM.

Consider `O=C(N[C@H]1C[C@H]2CN(S(=O)(=O)c3ccc(C(F)(F)F)cc3)CCN2C1)c1ccc(F)cc1F` [Example 11, 2,4-difluoro-N-[(7S,8aS)-2-{[4-(trifluoromethyl)phenyl]sulfonyl}octahydropyrrolo[1,2-a]pyrazin-7-yl]benzamide], for which the half-inhibitory concentration (IC50) was determined as 2410 nM.

Consider `O=S(=O)(c1cccc(N2CCCC2)n1)N1CCN2C[C@H](Oc3cnc(C4CC4)cn3)C[C@H]2C1` [Example 61, (7R,8aS)-7-[(5-cyclopropylpyrazin-2-yl)oxy]-2-{[6-(pyrrolidin-1-yl)pyridin-2-yl]sulfonyl}octahydropyrrolo[1,2-a]pyrazine], for which the IC50 came to 1040 nM.

As to `O=S(=O)(c1ccc(-c2ccccc2)cc1)N1CCN2C[C@H](Oc3cnc(C4CC4)cn3)C[C@H]2C1` [Example 136, (7R,8aS)-2-(biphenyl-4-ylsulfonyl)-7-[(5-cyclopropylpyrazin-2-yl)oxy]-octahydropyrrolo[1,2-a]pyrazine], the IC50 was determined as 990 nM.

As for `CC1(c2cnc(O[C@@H]3C[C@H]4CN(S(=O)(=O)c5cccc(C(F)(F)F)c5)CCN4C3)cn2)CC1` [Example 206, (7R,8aS)-7-{[5-(1-methylcyclopropyl)pyrazin-2-yl]oxy}-2-{[3-(trifluoromethyl)phenyl]sulfonyl}octahydropyrrolo[1,2-a]pyrazine], the half-maximal inhibitory concentration (IC50) stood at 1520 nM.

`O=S(=O)(c1ccc(F)cc1)N1CCN2C[C@H](Oc3cnc(C4CC4)cn3)C[C@H]2C1` [Example 143, (7R,8aS)-7-[(5-cyclopropylpyrazin-2-yl)oxy]-2-[(4-fluorophenyl)-sulfonyl]octahydropyrrolo[1,2-a]pyrazine]: the IC50 worked out at 2840 nM.

On to `O=S(=O)(c1cccc(C(F)(F)F)c1)N1CCN2C[C@H](Oc3ncc(C4CC4)s3)C[C@H]2C1` [Example 94, (7R,8aS)-7-[(5-cyclopropyl-1,3-thiazol-2-yl)oxy]-2-{[3-(trifluoromethyl)-phenyl]sulfonyl}octahydropyrrolo[1,2-a]pyrazine], for which the half-maximal inhibitory concentration (IC50) was 1440 nM.

For the molecule `N#Cc1ccccc1S(=O)(=O)N1CCN2C[C@H](Oc3cnc(C4CC4)cn3)C[C@H]2C1` [Example 146, 2-{[(7R,8aS)-7-[(5-cyclopropylpyrazin-2-yl)oxy]hexahydropyrrolo[1,2-a]-pyrazin-2(1H)-yl]sulfonyl}benzonitrile], the IC50 was 4350 nM.

In the case of `O=S(=O)(c1ccc(Cl)c(Cl)c1)N1CCN2C[C@H](Oc3cnc(C4CC4)cn3)C[C@H]2C1` [Example 151, (7R,8aS)-7-[(5-cyclopropylpyrazin-2-yl)oxy]-2-[(3,4-dichlorophenyl)-sulfonyl]octahydropyrrolo[1,2-a]pyrazine], the 50% inhibitory concentration (IC50) was found to be 1340 nM.

With `Cn1nccc1-c1cccc(S(=O)(=O)N2CCN3C[C@H](Oc4cnc(C5CC5)cn4)C[C@H]3C2)c1` [Example 176, (7R,8aS)-7-[(5-cyclopropylpyrazin-2-yl)oxy]-2-{[3-(1-methyl-1H-pyrazol-5-yl)phenyl]sulfonyl}octahydropyrrolo[1,2-a]pyrazine], the concentration for half-maximal inhibition (IC50) was 1330 nM.

As for `O=C(N[C@H]1C[C@H]2CN(S(=O)(=O)c3ccc(C(F)(F)F)cc3Cl)CCN2C1)c1ccc(F)c(F)c1` [Example 13, N-[(7S,8aS)-2-{[2-chloro-4-(trifluoromethyl)phenyl]sulfonyl}octahydropyrrolo[1,2-a]pyrazin-7-yl]-3,4-difluorobenzamide], the half-inhibitory concentration (IC50) was found to be 950 nM.

Regarding `O=S(=O)(c1ccc(C(F)(F)F)cc1)N1CCN2C[C@H](Oc3ccc(C4CC4)nn3)C[C@H]2C1` [Example 45, (7R,8aS)-7-[(6-cyclopropylpyridazin-3-yl)oxy]-2-{[4-(trifluoromethyl)-phenyl]sulfonyl}octahydropyrrolo[1,2-a]pyrazine], the half-inhibitory concentration (IC50) came to 3040 nM.

As to `CN1C(=O)Cc2cc(S(=O)(=O)N3CCN4C[C@H](Oc5cnc(C6CC6)cn5)C[C@H]4C3)ccc21` [Example 163, 5-{[(7R,8aS)-7-[(5-cyclopropylpyrazin-2-yl)oxy]hexahydropyrrolo[1,2-a]-pyrazin-2(1H)-yl]sulfonyl}-1-methyl-1,3-dihydro-2H-indol-2-one], the IC50 was determined as 16700 nM.

Turning to `O=S(=O)(c1ccc(F)c(F)c1F)N1CCN2C[C@H](Oc3cnc(C4CC4)cn3)C[C@H]2C1` [Example 123, (7R,8aS)-7-[(5-cyclopropylpyrazin-2-yl)oxy]-2-[(2,3,4-trifluorophenyl)-sulfonyl]octahydropyrrolo[1,2-a]pyrazine], the IC50 worked out at 3130 nM.

In the case of `O=S(=O)(c1cccc(Cl)c1)N1CCN2C[C@H](Oc3cnc(C4CC4)cn3)C[C@H]2C1` [Example 55, (7R,8aS)-2-[(3-chlorophenyl)sulfonyl]-7-[(5-cyclopropylpyrazin-2-yl)oxy]-octahydropyrrolo[1,2-a]pyrazine], the 50% inhibitory concentration (IC50) is 1140 nM.
